The list shows a part of the results.
Assays:
Experiment in all cases: glycan array binding signal (z-score within array); higher = stronger binding
Conditions in all cases: glycan notation: IUPAC condensed, linker removed
[1] = molecular target: Neu5Ac(a2-3)Gal(b1-4)GlcNAc(b1-3)[Neu5Ac(a2-3)Gal(b1-4)GlcNAc(b1-6)]GalNAc
Procedure, shortened: (§1)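 Columns mapping to the same glycan were averaged after glycan names were converted to IUPAC-condensed notation. The data come from 3228 arrays in the Consortium for Functional Glycomics database, limited to those with an available protein sequence. Binding is reported as a within-array Z-score averaged across arrays of one protein sequence and across linkers.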

[2] = molecular target: Neu5Ac(a2-3)Gal(b1-4)GlcNAc(b1-6)GalNAc
Procedure, shortened: as §1

[3] = molecular target: Neu5Ac(a2-3)Gal(b1-4)GlcNAc(b1-6)[Gal(b1-3)]GalNAc
Procedure, shortened: as §1

[4] = molecular target: Neu5Ac(a2-3)Gal(b1-4)GlcNAc(b1-6)[Neu5Ac(a2-3)Gal(b1-3)]GalNAc
Procedure, shortened: as §1

[5] = molecular target: Neu5Ac(a2-3)Gal(b1-4)GlcNAc6S
Procedure, shortened: as §1

[6] = molecular target: Neu5Ac(a2-3)Gal(b1-4)[Fuc(a1-3)]GlcNAc
Procedure, shortened: as §1

[7] = molecular target: Neu5Ac(a2-3)Gal(b1-4)[Fuc(a1-3)]GlcNAc(b1-2)Man
Procedure, shortened: as §1

[8] = molecular target: Neu5Ac(a2-3)Gal(b1-4)[Fuc(a1-3)]GlcNAc(b1-3)Gal
Procedure, shortened: as §1

[9] = molecular target: Neu5Ac(a2-3)Gal(b1-4)[Fuc(a1-3)]GlcNAc(b1-3)Gal(b1-4)GlcNAc
Procedure, shortened: as §1

[10] = molecular target: Neu5Ac(a2-3)Gal(b1-4)[Fuc(a1-3)]GlcNAc(b1-3)Gal(b1-4)[Fuc(a1-3)]GlcNAc(b1-3)Gal(b1-4)[Fuc(a1-3)]GlcNAc
Procedure, shortened: as §1

[11] = molecular target: Neu5Ac(a2-3)Gal(b1-4)[Fuc(a1-3)]GlcNAc(b1-3)GalNAc
Procedure, shortened: as §1

[12] = molecular target: Neu5Ac(a2-3)Gal(b1-4)[Fuc(a1-3)]GlcNAc(b1-6)[Gal(b1-3)]GalNAc
Procedure, shortened: as §1

[13] = molecular target: Neu5Ac(a2-3)Gal(b1-4)[Fuc(a1-3)]GlcNAc(b1-6)[Neu5Ac(a2-3)Gal(b1-3)]GalNAc
Procedure, shortened: as §1

[14] = molecular target: Neu5Ac(a2-3)Gal(b1-4)[Fuc(a1-3)]GlcNAc6S
Procedure, shortened: as §1

[15] = molecular target: Neu5Ac(a2-3)Gal6S(b1-4)GlcNAc
Procedure, shortened: as §1

[16] = molecular target: Neu5Ac(a2-3)Gal6S(b1-4)[Fuc(a1-3)]GlcNAc
Procedure, shortened: as §1

[17] = molecular target: Neu5Ac(a2-3)GalNAc
Procedure, shortened: as §1

[18] = molecular target: Neu5Ac(a2-3)GalNAc(b1-4)GlcNAc
Procedure, shortened: as §1

[19] = molecular target: Neu5Ac(a2-3)[GalNAc(b1-4)]Gal(b1-4)Glc
Procedure, shortened: as §1

[20] = molecular target: Neu5Ac(a2-3)[GalNAc(b1-4)]Gal(b1-4)GlcNAc
Procedure, shortened: as §1

[21] = molecular target: Neu5Ac(a2-3)[GalNAc(b1-4)]Gal(b1-4)GlcNAc(b1-3)GalNAc
Procedure, shortened: as §1

[22] = molecular target: Neu5Ac(a2-3)[Neu5Ac(a2-6)]GalNAc
Procedure, shortened: as §1

[23] = molecular target: Neu5Ac(a2-6)Gal
Procedure, shortened: as §1

[24] = molecular target: Neu5Ac(a2-6)Gal(b1-3)GlcNAc(b1-3)[Gal(b1-4)GlcNAc(b1-6)]Gal(b1-4)Glc
Procedure, shortened: as §1

[25] = molecular target: Neu5Ac(a2-6)Gal(b1-4)Glc
Procedure, shortened: as §1

[26] = molecular target: Neu5Ac(a2-6)Gal(b1-4)GlcNAc
Procedure, shortened: as §1

[27] = molecular target: Neu5Ac(a2-6)Gal(b1-4)GlcNAc(b1-2)Man
Procedure, shortened: as §1

[28] = molecular target: Neu5Ac(a2-6)Gal(b1-4)GlcNAc(b1-2)Man(a1-3)Man(b1-4)GlcNAc(b1-4)GlcNAc
Procedure, shortened: as §1

[29] = molecular target: Neu5Ac(a2-6)Gal(b1-4)GlcNAc(b1-2)Man(a1-3)[Gal(b1-4)GlcNAc(b1-2)Man(a1-6)]Man(b1-4)GlcNAc(b1-4)GlcNAc
Procedure, shortened: as §1

[30] = molecular target: Neu5Ac(a2-6)Gal(b1-4)GlcNAc(b1-2)Man(a1-3)[GlcNAc(b1-2)Man(a1-6)]Man(b1-4)GlcNAc(b1-4)GlcNAc
Procedure, shortened: as §1

[31] = molecular target: Neu5Ac(a2-6)Gal(b1-4)GlcNAc(b1-2)Man(a1-3)[GlcNAc(b1-4)][Neu5Ac(a2-6)Gal(b1-4)GlcNAc(b1-2)Man(a1-6)]Man(b1-4)GlcNAc(b1-4)GlcNAc
Procedure, shortened: as §1

[32] = molecular target: Neu5Ac(a2-6)Gal(b1-4)GlcNAc(b1-2)Man(a1-3)[Man(a1-6)]Man(b1-4)GlcNAc(b1-4)GlcNAc
Procedure, shortened: as §1

[33] = molecular target: Neu5Ac(a2-6)Gal(b1-4)GlcNAc(b1-2)Man(a1-3)[Neu5Ac(a2-3)Gal(b1-4)GlcNAc(b1-2)Man(a1-6)]Man(b1-4)GlcNAc(b1-4)GlcNAc
Procedure, shortened: as §1

[34] = molecular target: Neu5Ac(a2-6)Gal(b1-4)GlcNAc(b1-2)Man(a1-3)[Neu5Ac(a2-6)Gal(b1-4)GlcNAc(b1-2)Man(a1-6)]Man(b1-4)GlcNAc(b1-4)GlcNAc
Procedure, shortened: as §1

[35] = molecular target: Neu5Ac(a2-6)Gal(b1-4)GlcNAc(b1-2)Man(a1-3)[Neu5Ac(a2-6)Gal(b1-4)GlcNAc(b1-2)Man(a1-6)]Man(b1-4)GlcNAc(b1-4)[Fuc(a1-6)]GlcNAc
Procedure, shortened: as §1

[36] = molecular target: Neu5Ac(a2-6)Gal(b1-4)GlcNAc(b1-2)Man(a1-6)Man(b1-4)GlcNAc(b1-4)GlcNAc
Procedure, shortened: as §1

[37] = molecular target: Neu5Ac(a2-6)Gal(b1-4)GlcNAc(b1-2)Man(a1-6)[Gal(b1-4)GlcNAc(b1-2)Man(a1-3)]Man(b1-4)GlcNAc(b1-4)GlcNAc
Procedure, shortened: as §1

[38] = molecular target: Neu5Ac(a2-6)Gal(b1-4)GlcNAc(b1-2)Man(a1-6)[GlcNAc(b1-2)Man(a1-3)]Man(b1-4)GlcNAc(b1-4)GlcNAc
Procedure, shortened: as §1

[39] = molecular target: Neu5Ac(a2-6)Gal(b1-4)GlcNAc(b1-2)Man(a1-6)[Man(a1-3)]Man(b1-4)GlcNAc(b1-4)GlcNAc
Procedure, shortened: as §1

[40] = molecular target: Neu5Ac(a2-6)Gal(b1-4)GlcNAc(b1-2)[Neu5Ac(a2-6)Gal(b1-4)GlcNAc(b1-4)]Man(a1-3)[GlcNAc(b1-4)][Neu5Ac(a2-6)Gal(b1-4)GlcNAc(b1-2)[Neu5Ac(a2-6)Gal(b1-4)GlcNAc(b1-6)]Man(a1-6)]Man(b1-4)GlcNAc(b1-4)GlcNAc
Procedure, shortened: as §1

[41] = molecular target: Neu5Ac(a2-6)Gal(b1-4)GlcNAc(b1-2)[Neu5Ac(a2-6)Gal(b1-4)GlcNAc(b1-4)]Man(a1-3)[GlcNAc(b1-4)][Neu5Ac(a2-6)Gal(b1-4)GlcNAc(b1-4)Man(a1-6)]Man(b1-4)GlcNAc(b1-4)GlcNAc
Procedure, shortened: as §1

[42] = molecular target: Neu5Ac(a2-6)Gal(b1-4)GlcNAc(b1-2)[Neu5Ac(a2-6)Gal(b1-4)GlcNAc(b1-6)]Man(a1-6)[Neu5Ac(a2-6)Gal(b1-4)GlcNAc(b1-2)Man(a1-3)][GlcNAc(b1-4)]Man(b1-4)GlcNAc(b1-4)GlcNAc
Procedure, shortened: as §1

[43] = molecular target: Neu5Ac(a2-6)Gal(b1-4)GlcNAc(b1-3)Gal(b1-3)GlcNAc
Procedure, shortened: as §1

[44] = molecular target: Neu5Ac(a2-6)Gal(b1-4)GlcNAc(b1-3)Gal(b1-4)GlcNAc
Procedure, shortened: as §1

[45] = molecular target: Neu5Ac(a2-6)Gal(b1-4)GlcNAc(b1-3)Gal(b1-4)GlcNAc(b1-2)Man(a1-3)[Neu5Ac(a2-6)Gal(b1-4)GlcNAc(b1-3)Gal(b1-4)GlcNAc(b1-2)Man(a1-6)]GalNAc
Procedure, shortened: as §1

[46] = molecular target: Neu5Ac(a2-6)Gal(b1-4)GlcNAc(b1-3)Gal(b1-4)GlcNAc(b1-3)Gal(b1-4)GlcNAc
Procedure, shortened: as §1

B1: Epa3 (Candida glabrata), Q6VBI8_CANGB (protein)
chain: MGSSHHHHHHSSGLVPRGSHMNDLGFSLFEKRELSSQNPFGYPIGCSPQDVAIIPGLTMELYSYPIVSGTPPNCYDASYVDPEYPRTGYLKRKMVGKSTGVTGNLNYKYSVEKACMVKYGNLPAGYNYNEPLTVSNFTMILYGYFKAQTTGLHTFFVNADDLLYINFGAGNAFDCCKREDSKTKLGEYVAYDIWHVDSSKNKVSLFLEKDLYYPIRMFFNNIGKDSSLDLSFSVNGATDQISDFSGYLYSVPDQPDTCPAHIGYDTTCR
Q: Which “glycan array binding signal (z-score)” value [1] does the source give for B1 here?
A: -0.156

Q: And the “glycan array binding signal (z-score)” value [2]?
A: -0.062

Q: What about the “glycan array binding signal (z-score)” value [3] of the same binder?
A: 0.921

Q: What about the “glycan array binding signal (z-score)” value [4] of the same binder?
A: -0.207

Q: And the “glycan array binding signal (z-score)” value [5]?
A: -0.262

Q: And the “glycan array binding signal (z-score)” value [6]?
A: -0.335

Q: And the “glycan array binding signal (z-score)” value [7]?
A: -0.012

Q: What about the “glycan array binding signal (z-score)” value [8] of the same binder?
A: -0.323

Q: And the “glycan array binding signal (z-score)” value [9]?
A: 0.105

Q: What about the “glycan array binding signal (z-score)” value [10] of the same binder?
A: -0.263

Q: What about the “glycan array binding signal (z-score)” value [11] of the same binder?
A: 0.344

Q: What about the “glycan array binding signal (z-score)” value [12] of the same binder?
A: 0.355

Q: What about the “glycan array binding signal (z-score)” value [13] of the same binder?
A: 0.037

Q: What about the “glycan array binding signal (z-score)” value [14] of the same binder?
A: -0.194

Q: And the “glycan array binding signal (z-score)” value [15]?
A: -0.119

Q: What about the “glycan array binding signal (z-score)” value [16] of the same binder?
A: -0.344

Q: What about the “glycan array binding signal (z-score)” value [17] of the same binder?
A: -0.308

Q: What about the “glycan array binding signal (z-score)” value [18] of the same binder?
A: -0.373

Q: And the “glycan array binding signal (z-score)” value [19]?
A: -0.327

Q: And the “glycan array binding signal (z-score)” value [20]?
A: -0.199

Q: And the “glycan array binding signal (z-score)” value [21]?
A: 0.265

Q: And the “glycan array binding signal (z-score)” value [22]?
A: -0.458

Q: What about the “glycan array binding signal (z-score)” value [23] of the same binder?
A: -0.199

Q: And the “glycan array binding signal (z-score)” value [24]?
A: -0.186

Q: And the “glycan array binding signal (z-score)” value [25]?
A: -0.237

Q: And the “glycan array binding signal (z-score)” value [26]?
A: -0.303

Q: And the “glycan array binding signal (z-score)” value [27]?
A: -0.384

Q: What about the “glycan array binding signal (z-score)” value [28] of the same binder?
A: -0.147

Q: What about the “glycan array binding signal (z-score)” value [29] of the same binder?
A: -0.331

Q: And the “glycan array binding signal (z-score)” value [30]?
A: -0.308

Q: What about the “glycan array binding signal (z-score)” value [31] of the same binder?
A: -0.306

Q: What about the “glycan array binding signal (z-score)” value [32] of the same binder?
A: -0.211

Q: What about the “glycan array binding signal (z-score)” value [33] of the same binder?
A: -0.414

Q: And the “glycan array binding signal (z-score)” value [34]?
A: -0.145

Q: What about the “glycan array binding signal (z-score)” value [35] of the same binder?
A: -0.168

Q: What about the “glycan array binding signal (z-score)” value [36] of the same binder?
A: -0.322

Q: What about the “glycan array binding signal (z-score)” value [37] of the same binder?
A: -0.325

Q: And the “glycan array binding signal (z-score)” value [38]?
A: -0.327

Q: What about the “glycan array binding signal (z-score)” value [39] of the same binder?
A: -0.384

Q: And the “glycan array binding signal (z-score)” value [40]?
A: -0.321

Q: What about the “glycan array binding signal (z-score)” value [41] of the same binder?
A: -0.072

Q: And the “glycan array binding signal (z-score)” value [42]?
A: -0.272

Q: And the “glycan array binding signal (z-score)” value [43]?
A: -0.166

Q: What about the “glycan array binding signal (z-score)” value [44] of the same binder?
A: -0.267

Q: And the “glycan array binding signal (z-score)” value [45]?
A: 0.213

Q: What about the “glycan array binding signal (z-score)” value [46] of the same binder?
A: -0.327

Source: the supplement of paper PMC8728848
